# Test system: human UGTs
# Test: Glucuronidation activity across the tested human recombinant UGTs
# Conditions: UGT1A7, UGT1A8, UGT1A9, UGT1A10
smiles,measurement,value
"CCCCCc1cc(O)c2c(c1)OC(C)(C)c1ccc(C)cc1-2 [CBN, cannabinol]",variation in substrate binding (Km) among four UGTs,17 fold

# Source: patent US8410064B2, “Classical cannabinoid metabolites and methods of use thereof” (priority 2009, dated 2013)
